These results are taken from the BET-seq Pho4 binding data (Le et al. 2018).

This is one part of the list. The energies were worked out here from pooled read counts, against the library average; single values are noisy.

In the test the target is T1, Pho4 (S. cerevisiae) (UniProt P07270).
T1 sequence: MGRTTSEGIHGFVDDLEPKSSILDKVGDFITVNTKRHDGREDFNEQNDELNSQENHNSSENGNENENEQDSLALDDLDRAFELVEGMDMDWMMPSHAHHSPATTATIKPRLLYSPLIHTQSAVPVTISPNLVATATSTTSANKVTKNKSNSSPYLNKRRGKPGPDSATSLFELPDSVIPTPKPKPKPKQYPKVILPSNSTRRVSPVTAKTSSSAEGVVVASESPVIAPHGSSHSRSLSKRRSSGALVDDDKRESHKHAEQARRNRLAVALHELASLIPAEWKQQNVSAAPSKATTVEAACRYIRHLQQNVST
In words: relative binding free energy (BET-seq); higher = weaker binding. To be noted: reference: library average.
For TGTGGCACGTGGTATA, the “relative binding free energy” value was -0.14 kcal/mol.
The figure for GGGGGCACGTGGTTAC is -0.06 kcal/mol.
Then TTGTTCACGTGTGAGA, with 0.39 kcal/mol; and TTTGGCACGTGACGTC, with 0.17 kcal/mol.
Take TAAGGCACGTGTTTAT: the “relative binding free energy” value was -0.12 kcal/mol.
Then TGGCGCACGTGTTGCT, with -0.14 kcal/mol.
For GTCTGCACGTGTAGTA, the “relative binding free energy” value was -0.07 kcal/mol.
Turning to GGGGGCACGTGCGCGT, the “relative binding free energy” value was -0.33 kcal/mol.
Then ATAATCACGTGGAGGA, with 0.21 kcal/mol.
The figure for GCTTTCACGTGGCGTA is 0.37 kcal/mol; for TGTAGCACGTGCTAAA it is 0.07 kcal/mol.
As to ATGGGCACGTGAAATA, the “relative binding free energy” value came to 0.17 kcal/mol.
Turning to TACCTCACGTGGTGGG, the “relative binding free energy” value came out at 0.21 kcal/mol.
Regarding GGGTCCACGTGGGGGT, the “relative binding free energy” value was -0.1 kcal/mol.
As to GGCTGCACGTGATGTA, the “relative binding free energy” value was found to be 0.14 kcal/mol.
The figure for TAGGTCACGTGGATAA is 0.19 kcal/mol.
Turning to TTGGTCACGTGACGTA, the “relative binding free energy” value turned out to be 0.24 kcal/mol.
The figure for CGTTTCACGTGCGGGA is 0.21 kcal/mol; for AGTTACACGTGAGTGT it is 0.25 kcal/mol; for GGGATCACGTGGTTTT it is 0.35 kcal/mol.
Then GCTAGCACGTGTGGTA, with -0.06 kcal/mol; and GTCTGCACGTGGATAG, with 0.19 kcal/mol; and TTCTCCACGTGGGTGG, with -0.21 kcal/mol.
Then AGGGTCACGTGAGATT, with 0.28 kcal/mol; and TAAAGCACGTGGGATT, with -0.2 kcal/mol; and TCGTGCACGTGTTGAT, with -0.15 kcal/mol.
With AGTTACACGTGGGGGC, the “relative binding free energy” value was -0.01 kcal/mol.
The figure for GCTTTCACGTGGTGCT is 0.17 kcal/mol; for TAGGGCACGTGAAGGC it is 0.13 kcal/mol.
Then AAGGGCACGTGGCGAT, with -0.14 kcal/mol; and TGACGCACGTGCGGAT, with 0.03 kcal/mol; and CCGGTCACGTGTGGGG, with 0.04 kcal/mol.
Turning to ATCTGCACGTGGTTGT, the “relative binding free energy” value was -0.02 kcal/mol.
Then TTAGGCACGTGTTCAG, with -0.14 kcal/mol.
Then GATATCACGTGGGGCA, with 0 kcal/mol; and GTTGCCACGTGGATGG, with -0.06 kcal/mol; and GCGCTCACGTGGGGGA, with 0.04 kcal/mol.
Turning to TTTTGCACGTGATTTA, the “relative binding free energy” value stood at 0.05 kcal/mol.
Then AGCGGCACGTGGGAGT, with -0.21 kcal/mol; and TCGGTCACGTGCGAGT, with 0.2 kcal/mol.
Then GGGCGCACGTGGAGAG, with 0.07 kcal/mol; and AATGGCACGTGGGACT, with -0.19 kcal/mol; and TTTAGCACGTGCTTAT, with -0.07 kcal/mol.
Then AAGTTCACGTGCTTTA, with 0.24 kcal/mol.
As to AGGAACACGTGTGGTG, the “relative binding free energy” value is 0.08 kcal/mol.
The figure for CTAGGCACGTGAGGAG is 0.05 kcal/mol; for TGGGACACGTGACGTC it is 0.29 kcal/mol; for GATGTCACGTGTGCGA it is 0.19 kcal/mol.
Then TTATTCACGTGAACAG, with 0.4 kcal/mol; and GCTGTCACGTGGGTTA, with 0.1 kcal/mol; and TTCGACACGTGTTCGT, with 0.11 kcal/mol.
Then CTGTTCACGTGCGTAG, with 0.14 kcal/mol.
GATGGCACGTGGTCTT: the “relative binding free energy” value was -0.12 kcal/mol.
In the case of CAAGCCACGTGTGGGG, the “relative binding free energy” value came to 0.03 kcal/mol.
Then TGAATCACGTGTGAGT, with 0.31 kcal/mol; and CTTGGCACGTGCGGTT, with -0.16 kcal/mol; and GTGAACACGTGGGAAT, with 0.1 kcal/mol.
The figure for AGGGGCACGTGAAGTG is 0.25 kcal/mol; for ATAGCCACGTGGTTTT it is -0.14 kcal/mol; for TAAGACACGTGTGATT it is 0.2 kcal/mol.
The figure for TGATTCACGTGGCGGA is 0.32 kcal/mol; for TATAGCACGTGTAGGA it is -0.08 kcal/mol.
With CTGTGCACGTGTCGTA, the “relative binding free energy” value is 0.15 kcal/mol.
Then GATGGCACGTGGGGAG, with -0.1 kcal/mol; and CGTAGCACGTGGAGTT, with -0.09 kcal/mol.
Then GCGGACACGTGGGTAG, with -0.09 kcal/mol; and TCATGCACGTGGTGAT, with -0.1 kcal/mol.
The figure for GGGGGCACGTGGCTAG is -0.18 kcal/mol.
For the sequence ATGTTCACGTGGAAGC, the “relative binding free energy” value was 0.33 kcal/mol.
In the case of TGATTCACGTGGGAAT, the “relative binding free energy” value came to 0.23 kcal/mol.
Then TTGTACACGTGCGTGC, with -0.07 kcal/mol; and GGTTCCACGTGGATGG, with 0.2 kcal/mol; and TCGTTCACGTGATTTT, with 0.36 kcal/mol.
In the case of AAGTGCACGTGTGGTG, the “relative binding free energy” value was -0.1 kcal/mol.
Then TGTTTCACGTGGGTTT, with 0.19 kcal/mol; and TGAAGCACGTGCGTAT, with -0.08 kcal/mol.
As for ATGAACACGTGGAGGT, the “relative binding free energy” value was 0.08 kcal/mol.
As for TTAGTCACGTGGGGCT, the “relative binding free energy” value was -0.07 kcal/mol.
Then GGTCCCACGTGGAGGG, with -0.1 kcal/mol.
Consider TCGGGCACGTGGAGGT, for which the “relative binding free energy” value was -0.05 kcal/mol.
Then TTTGGCACGTGGCGTA, with -0.1 kcal/mol; and TTGTTCACGTGCAGGC, with 0.22 kcal/mol.
The figure for GGGTGCACGTGTCCTG is 0.01 kcal/mol; for TGATGCACGTGTCTTT it is 0.02 kcal/mol; for AAAAGCACGTGGGCGG it is -0.24 kcal/mol.
The figure for GTATACACGTGGTAAT is 0.1 kcal/mol; for GAGAGCACGTGTGTTT it is 0.09 kcal/mol.
In the case of TATTTCACGTGAAATG, the “relative binding free energy” value is 0.29 kcal/mol.
As for GTTGCCACGTGATGCG, the “relative binding free energy” value is 0.09 kcal/mol.
TTGTACACGTGAGCGG: the “relative binding free energy” value stood at 0.42 kcal/mol.
Regarding ATAAACACGTGTGAGG, the “relative binding free energy” value came to 0.07 kcal/mol.
With CTGTGCACGTGAAAGG, the “relative binding free energy” value was found to be 0.17 kcal/mol.
Then TTCTGCACGTGGGGGA, with 0.01 kcal/mol; and GTGCCCACGTGGGGTT, with -0.16 kcal/mol.
The figure for ATGGGCACGTGTGCGT is -0.04 kcal/mol.
Turning to TTTGGCACGTGCTTTA, the “relative binding free energy” value is -0.11 kcal/mol.
Take TTTGACACGTGTGGCA: the “relative binding free energy” value is 0 kcal/mol.
Then TGGTACACGTGTTACG, with 0.15 kcal/mol; and TTTATCACGTGGCATT, with -0.01 kcal/mol; and GGGAACACGTGGTGCT, with -0.05 kcal/mol.
As for TTAGGCACGTGATGCG, the “relative binding free energy” value was -0.17 kcal/mol.
The figure for TAATTCACGTGGTGGC is 0.15 kcal/mol; for AGTGACACGTGGTTGC it is 0 kcal/mol; for TCTAGCACGTGTGATA it is 0.21 kcal/mol.
For TCGGTCACGTGTTGAG, the “relative binding free energy” value is 0.18 kcal/mol.
Then GGGTTCACGTGATGCG, with 0.28 kcal/mol.
Then ATGAGCACGTGAGATT, with 0.19 kcal/mol; and GCCGGCACGTGGGGTA, with -0.23 kcal/mol; and GATGGCACGTGTGGCG, with 0 kcal/mol.
The figure for ATTTTCACGTGGTCCT is 0.2 kcal/mol.
On to TGTGCCACGTGATTAT, for which the “relative binding free energy” value is -0.01 kcal/mol.
Regarding ATGGTCACGTGTAGGG, the “relative binding free energy” value is 0.19 kcal/mol.
Consider CTATGCACGTGGGCTT, for which the “relative binding free energy” value is -0.14 kcal/mol.
The figure for CGTAGCACGTGTGTTC is 0.04 kcal/mol; for TGAGGCACGTGAACGG it is 0.08 kcal/mol.
